From the supplement of paper PMC11417369 come the findings set out here.

± gives the standard deviation of the averaged measurements. The list shows a part of the results.

This assay relates to PfAP2-LT AP2 domain (GST-tagged). The assay is described as follows: gcPBM binding intensity (ln(normalized median fluorescence intensity)); higher = stronger DNA binding. The gist of the method:
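GST-tagged P. falciparum DNA-binding domains, expressed in E. coli (about 25 μg on average), were applied for 1 h to an Agilent 4 × 180k array of primer-extended double-stranded 36-bp intergenic genomic probes plus negative controls. The binding buffer was 1× PBS with 1% milk, 0.2 mg/ml BSA, 0.5% salmon testes DNA and 0.03% Triton X-100. Bound protein was detected with Alexa488 anti-GST antibody and scanned at 488 nm. Binding intensity is the highest Masliner-normalised natural-log median intensity across replicate spots of either probe orientation.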
As for “AAAAAAAAAAAAAAAAAAAAAAAAAAAAAATATGTG [GTGCAC_negctrl_site657]”, the “gcPBM binding intensity (ln)” value came out at 8.91 ± 0.27.

With “ATGAACTAAACTAATCGTACAATAAGTTTTATTATA [XGTACX_site4891]”, the “gcPBM binding intensity (ln)” value is 8.66 ± 0.56.

Consider “AAAAAAATATATAAATGTACATATTGTTTAATTAAT [XGTACX_site3794]”, for which the “gcPBM binding intensity (ln)” value was 8.7 ± 0.45.

For “TCACACACTCTCAAAAGTACAAGAAGATTATGAAGA [XGTACX_site4748]”, the “gcPBM binding intensity (ln)” value amounted to 9.11 ± 0.45.

As to “ATCTATCATATTTATGCACACAAAAATAATTAATTC [CACACA_site8837]”, the “gcPBM binding intensity (ln)” value worked out at 8.94 ± 0.42.

Turning to “TATTATTTACTTATTGCACACATATAAAATATATTT [CACACA_site9017]”, the “gcPBM binding intensity (ln)” value turned out to be 9.04 ± 0.4.

For the sequence “ATATGCACTCATTGTGCACACGCATATTACGAAAAG [CACACA_site2637]”, the “gcPBM binding intensity (ln)” value came out at 9.18 ± 0.3.

As for “AATTTACAAAAAAGAAAAAAAAAAAAAAAGATACTT [CACACA_negctrl_site1434]”, the “gcPBM binding intensity (ln)” value turned out to be 8.45 ± 0.58.

As for “TTTTTTTTTTTTTTTTTTTTTTTTTTATGATATATA [GTGCAC_negctrl_site365]”, the “gcPBM binding intensity (ln)” value is 8.24 ± 0.4.

With “ATATTATAATGTTTTTACGAATTCGCAAATTATTAT [GTGCAC_negctrl_site470]”, the “gcPBM binding intensity (ln)” value worked out at 8.75 ± 0.4.

In the case of “TTAATTATCCATTTTGCACACATTTTAAAACATGAA [CACACA_site189]”, the “gcPBM binding intensity (ln)” value was determined as 9.02 ± 0.39.

Consider “AGATTGTATTTATGTACACACATTTTTGGAATATGA [CACACA_site1340]”, for which the “gcPBM binding intensity (ln)” value is 8.96 ± 0.35.

Turning to “TTAAATATAATTATATGTACATATTTATGTATATAT [XGTACX_site5811]”, the “gcPBM binding intensity (ln)” value was 8.75 ± 0.37.

Take “TTGATTAAAATTAGTACACACAAAATACATGCGGGG [CACACA_site5284]”: the “gcPBM binding intensity (ln)” value worked out at 9.43.

For the sequence “TATATATTAAAATAATCACACACATCAATTAATGGT [CACACA_site8331]”, the “gcPBM binding intensity (ln)” value worked out at 9.09 ± 0.42.

In the case of “AAAAAATTATTAATTTGTACATAAATAACCAAAAAA [XGTACX_site2488]”, the “gcPBM binding intensity (ln)” value came out at 8.49 ± 0.52.

On to “TTTTTTAAATGTATTAAAATTATATATATATATATA [GTGCAC_negctrl_site570]”, for which the “gcPBM binding intensity (ln)” value amounted to 8.63 ± 0.16.

Regarding “ATACATAAATTTAGAAGTACATAACAAATTTTTAAA [XGTACX_site7448]”, the “gcPBM binding intensity (ln)” value turned out to be 8.66 ± 0.45.

Consider “AATCAAAACAACAATAGTACATAAAAAAACAAAACA [XGTACX_site4181]”, for which the “gcPBM binding intensity (ln)” value amounted to 8.97 ± 0.49.

Turning to “ATTAAATGTTATATTTGTACATATTATATATATATA [XGTACX_site5095]”, the “gcPBM binding intensity (ln)” value was 8.75 ± 0.45.

Consider “TCCATATTTGTTCACACACACACATATTTATATATA [CACACA_site3570]”, for which the “gcPBM binding intensity (ln)” value came to 9.56 ± 0.28.

Take “TTTGTTATTTTTTATTGTACTTTTTTTCTTTCATAA [XGTACX_site4302]”: the “gcPBM binding intensity (ln)” value stood at 8.75 ± 0.45.

As to “TTCATTTTTTATTATAGTACACATAATATTTGCAGA [XGTACX_site4032]”, the “gcPBM binding intensity (ln)” value is 8.66 ± 0.51.

Regarding TATATATATATGTGCGTGCACGTTACCTTGCTGTTT, the “gcPBM binding intensity (ln)” value came to 9.69 ± 0.23.

Consider “TTTCCAAATACAACTACACACAAACAAAAGTTATAT [CACACA_site6544]”, for which the “gcPBM binding intensity (ln)” value is 9.04 ± 0.42.

On to “AAATTTAACAACTTCAAACACACAATATATATATAT [CACACA_site2092]”, for which the “gcPBM binding intensity (ln)” value was 9.06 ± 0.34.

“TATAATAATAATTATACATGCATGAATATTTATATG [TGCATGCA_site811]”: the “gcPBM binding intensity (ln)” value turned out to be 8.64 ± 0.34.

In the case of “TCCTATATATAAATATTAATATATATGTATTGGTAT [GTGCAC_negctrl_site23]”, the “gcPBM binding intensity (ln)” value is 8.66 ± 0.49.

As to “TTTCTTATTTTGGATTGTACGTATATTTTTCATTTT [XGTACX_site224]”, the “gcPBM binding intensity (ln)” value turned out to be 9.01 ± 0.48.

“AAAAAAAAAAAAAACACACACACAAATACAAATGGT [CACACA_site1721]”: the “gcPBM binding intensity (ln)” value came to 9.85 ± 0.23.

For the sequence “TTATATTTCAATCATATTGTCACAAGTCATATTTAT [GTGCAC_negctrl_site366]”, the “gcPBM binding intensity (ln)” value was found to be 8.66 ± 0.45.

“TTACACATGAGAAAATGTACATATAATAAAATATGT [XGTACX_site904]”: the “gcPBM binding intensity (ln)” value is 8.93 ± 0.38.

Regarding “AACAAAAAAAAAAAAAAAAAAAAAAAAAAAAAAATG [CACACA_negctrl_site1127]”, the “gcPBM binding intensity (ln)” value was 8.45 ± 0.4.

“AATAAAAAAAATAGCATACACACATATATACATATA [CACACA_site659]”: the “gcPBM binding intensity (ln)” value was 8.96 ± 0.4.

As to “ATGGACAAGTTAAACGCACACAAATATATACACCCA [CACACA_site8478]”, the “gcPBM binding intensity (ln)” value stood at 9.64 ± 0.52.

Take ATGTTCTTATTATTGGTGCAAGAATACACAAGAAAA: the “gcPBM binding intensity (ln)” value was found to be 8.69 ± 0.47.

In the case of “TATTGTTCTTATTTAGTGCATATATAATATAATATA [GTGCAC_site9827]”, the “gcPBM binding intensity (ln)” value stood at 8.53 ± 0.4.

Turning to “AACACATAATAAAATTGTACCCAACATTTCTTTTGA [XGTACX_site8061]”, the “gcPBM binding intensity (ln)” value was 8.73 ± 0.47.

As for “TATGTGAATAAATAAGCACACATAAACACATATATA [CACACA_site9359]”, the “gcPBM binding intensity (ln)” value stood at 9.4 ± 0.34.

“TTTTGAAGCTTTAAAACATATATATATATATATATA [CACACA_negctrl_site184]”: the “gcPBM binding intensity (ln)” value was 9.75 ± 0.41.

On to “AGCAAAACAAAAAAATTAAAATTAACATATAATCAT [GTGCAC_negctrl_site393]”, for which the “gcPBM binding intensity (ln)” value came out at 8.66 ± 0.57.

“AATAAGAGGATACATTGTACATAAAAAAAAAAAATA [XGTACX_site1815]”: the “gcPBM binding intensity (ln)” value is 8.78 ± 0.55.

Regarding “AATACCTACCAAACATGTACATACGCTTCTCAAATA [XGTACX_site5535]”, the “gcPBM binding intensity (ln)” value is 8.96 ± 0.39.

With “TATATAAACACGTACACACACATATCTGTATTTATA [CACACA_site5858]”, the “gcPBM binding intensity (ln)” value turned out to be 9.44 ± 0.3.

In the case of “GTGAGCTCAGACTACACACACAAAGAAAAAAATAAA [CACACA_site1553]”, the “gcPBM binding intensity (ln)” value was 9.28 ± 0.66.

Consider “ATATTTTTAGGTGATTATTATTCGGAGAAGCGAATT [CACACA_negctrl_site1097]”, for which the “gcPBM binding intensity (ln)” value is 8.47 ± 0.4.

In the case of “AACAAATACAGACACACACACACACCCAAAAAAAAA [CACACA_site515]”, the “gcPBM binding intensity (ln)” value was 10.2 ± 0.26.

On to “ATACAACAAAAATAAGCACACACAAATATACATACA [CACACA_site9201]”, for which the “gcPBM binding intensity (ln)” value came to 9.7 ± 0.4.

In the case of “ATAAAAATTTAAAAAGAACACACGAAAGAAGGACTT [CACACA_site3929]”, the “gcPBM binding intensity (ln)” value worked out at 9.01 ± 0.53.

With “AATATTTTCTTGTACGCATGCACATCCAAATTATAT [TGCATGCA_site873]”, the “gcPBM binding intensity (ln)” value worked out at 9.1 ± 0.38.

As to “TGACCTGTTCAGGTAACACACATATAAACACATACA [CACACA_site4186]”, the “gcPBM binding intensity (ln)” value worked out at 9.2 ± 0.41.

As to “ATATATTAATAATTTTGTACGCATTTCCTTTTTATT [XGTACX_site1638]”, the “gcPBM binding intensity (ln)” value worked out at 8.93 ± 0.46.

In the case of “AAAAAAAAAAAAAAATGTACAAATAAAGAAATATGA [XGTACX_site4371]”, the “gcPBM binding intensity (ln)” value amounted to 8.76 ± 0.55.

As to “GAAAATATTTCCGTATGTACTTATTTTAGTCTACTA [XGTACX_site471]”, the “gcPBM binding intensity (ln)” value was found to be 8.81 ± 0.42.

As for “ATACCCACTTAAAATACACACACACCGAAAAAAAAA [CACACA_site8867]”, the “gcPBM binding intensity (ln)” value is 9.65 ± 0.28.

“AGGTTCTTTTTAAATGGTACACATAATTTGAAGATA [XGTACX_site400]”: the “gcPBM binding intensity (ln)” value was determined as 8.49 ± 0.54.
